# These are yes or no findings as the source states them, for the method shown. Some results given as binding are weak or reduced against the parent protein; the word gives no strength.
# Sequences of proteins named here, by UniProt entry; tags and fusion partners are left off. Residues count along the entry.
# UniProt P11940, residues 95-176: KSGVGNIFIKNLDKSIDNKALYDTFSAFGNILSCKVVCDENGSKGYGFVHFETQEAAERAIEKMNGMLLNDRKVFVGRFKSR
# UniProt Q04637, residues 1-260: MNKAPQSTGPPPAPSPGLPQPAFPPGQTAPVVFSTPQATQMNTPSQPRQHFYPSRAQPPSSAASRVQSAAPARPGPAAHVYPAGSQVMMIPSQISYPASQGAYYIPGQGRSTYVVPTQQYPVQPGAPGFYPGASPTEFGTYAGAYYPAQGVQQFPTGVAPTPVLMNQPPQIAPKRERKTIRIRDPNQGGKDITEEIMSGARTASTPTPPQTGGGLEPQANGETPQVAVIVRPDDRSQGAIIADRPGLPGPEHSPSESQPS
# B1: yeast eIF4G1 N-terminus (amino acids 1-341) (domain or fragment, UniProt P39935 1-341)
# chain: MTDETAHPTQSASKQESAALKQTGDDQQESQQQRGYTNYNNGSNYTQKKPYNSNRPHQQRGGKFGPNRYNNRGNYNGGGSFRGGHMGANSSNVPWTGYYNNYPVYYQPQQMAAAGSAPANPIPVEEKSPVPTKIEITTKSGEHLDLKEQHKAKLQSQERSTVSPQPESKLKETSDSTSTSTPTPTPSTNDSKASSEENISEAEKTRRNFIEQVKLRKAALEKKRKEQLEGSSGNNNIPMKTTPENVEEKGSDKPEVTEKTKPAEEKSAEPEVKQETPAEEGEQGEKGQIKEESTPKVLTFAERLKLKKQQKEREEKTEGKENKEVPVQEETKSAIESAPVP
# What was measured:
# Assay in all cases: two-hybrid; Pab1/PABP1 constructs fused to the Gal4 DNA-binding domain (pOBD2), eIF4G fragments fused to the Gal4 activation domain (pOAD); yeast strain PJ694a; HIS3 reporter; cells spotted in a dilution series on synthetic complete plates lacking leucine and tryptophan, with or without histidine, 30°C, three days
# [1] = biological target: Pab1 RRM2 (amino acids 123-204) A185K (S. cerevisiae) (UniProt P04147)
# [2] = biological target: Pab1 RRM2 (amino acids 123-204) E181R (S. cerevisiae) (UniProt P04147)
# [3] = biological target: Pab1 RRM2 (amino acids 123-204) L186M (S. cerevisiae) (UniProt P04147)
# [4] = biological target: Pab1 RRM2 (amino acids 123-204) [E181R, A185K, L186M, A158V, T159C] (S. cerevisiae) (UniProt P04147)
# [5] = biological target: Pab1 RRM2 (amino acids 123-204) [E181R, A185K, L186M, E176Q, G177E] (S. cerevisiae) (UniProt P04147)
# [6] = biological target: Pab1 RRM2 (amino acids 123-204) [E181R, A185K, L186M, G177E] (S. cerevisiae) (UniProt P04147)
# [7] = biological target: Pab1 RRM2 (amino acids 123-204) [E181R, A185K, L186M, P135K, Q194R] (S. cerevisiae) (UniProt P04147)
# [8] = biological target: Pab1 RRM2 (amino acids 123-204) [E181R, A185K, L186M, V148A, K180E, D184E] (S. cerevisiae) (UniProt P04147)
# [9] = biological target: Pab1 RRM2 (amino acids 123-204) [E181R, A185K, L186M] (S. cerevisiae) (UniProt P04147)
# [10] = biological target: Pab1 RRM2 (amino acids 123-204), wild type (S. cerevisiae) (UniProt P04147)
# [11] = biological target: human PABP1 fragment (amino acids 95-176), RRM2 (human) (UniProt P11940)
Molecule,binding [1],binding [2],binding [3],binding [4],binding [5],binding [6],binding [7],binding [8],binding [9],binding [10],binding [11]
human eIF4G1 N-terminus (amino acids 1-260) (from UniProt Q04637 1-260) (domain or fragment),no binding,binds,no binding,no binding,binds,no binding,no binding,no binding,no binding,no binding,
B1,,,,,,,,,,,no binding
